Data from PubChem BioAssay AID1671193 (National Center for Advancing Translational Sciences (NCATS), 2021).
Screen size: about 150,000 compounds; about 180 (0.12%) were called active. This list was built around the results that the source calls inconclusive (neither active nor inactive); the mix of calls is not that of the screen. The call rests on the fitted dose curve; in most records, active means well fitted cell-killing curve with a large enough effect; inconclusive means small, poorly fitted or top-dose-only effect, or effect the other way; inactive means flat fitted curve, though single readings scatter. Potencies of inconclusive entries are doubtful fits and often do not repeat.
Potency means the concentration at half of the fitted maximal effect; tags describe the fitted curve by direction and shape.

Experiment: GF-AFC viability counterscreen for inhibitors of alpha-synuclein gene (SNCA) expression; further: nearly all actives have a fitted effect of over 30% in size
Settings: HEK-293-SNCA-luc viability, GF-AFC fluorescence, 24 h; series mostly up to 57.1 µM
Source text: Assay Submitter (PI): Daniel R. Scoles Ph.D.
Department of Neurology, University of Utah, Salt Lake City, Utah
Accumulation of alpha-synuclein is a main underlying pathological feature of Parkinson's disease (PD) and alpha-synucleinopathies, for which lowering expression of the alpha-synuclein gene (SNCA) is a potential therapeutic avenue. Using a cell-based luciferase reporter of SNCA expression we performed a quantitative high throughput screen (qHTS) of 155,885 compounds in dose response. The screening assay was generated using genome editing to insert the luciferase gene downstream and in frame of the SNCA gene in HEK-293 cells (1). A viability counterscreen using GF-AFC was used to eliminate cytotoxic and false positive compounds. After in silico analysis (clustering, removal of frequent hitter nuisance chemotypes), inhibitor compounds from the primary screen were selected for follow up and re-tested at 11-doses in the SNCA-luc cells (luciferase and GF-AFC confirmation), and in CMV-luc expressing cell line to flag general transcriptional repressors.
Described herein are the results of the GF-AFC viability counterscreen for SNCA inhibitors; inactivity (no decrease in fluorescence signal, not cytotoxic) is the desired output for this assay.
1. Dansithong, W., Paul, S., Scoles, D. R., Pulst, S. M., and Huynh, D. P. (2015) Generation of SNCA Cell Models Using Zinc Finger Nuclease (ZFN) Technology for Efficient High-Throughput Drug Screening. PLoS ONE 10, e0136930.
SEQUENCE No. (e.g., 1, 2, 3, etc.); […] (e.g., Cells, Incubation, Reagent, etc.); VALUE; DESCRIPTION
1; Cells; 4 uL; Dispense 1500 HEK-293-SNCA-luc cells/well into Greiner 1536-well white / solid bottom tissue culture treated plate. The plate was covered with metal lids with gas-exchange holes.
2; Incubate; 24 hours; Incubate at 37C, 5% CO2, 95% RH.
3; Compounds; 23 nL; Compounds and controls were transferred via a Kalypsys Pin Tool (Wako USA) equipped with a 1536-slotted pin array. The plate was covered with metal lids with gas-exchange holes.
4; Incubate; 24 hours; Incubate at 37C, 5% CO2, 95% RH.
5; Dispense; 1 uL; Dispense Gly-Phe-7-amino-4-trifluoromethylcoumarin (GF-AFC, prepared at 125 uM in PBS) was added. The plate was covered with metal lids with gas-exchange holes.
6; Incubate; 30 min; Incubate at 37C, 5% CO2.
7; Detector; Fluorescence; Measure fluorescence with ViewLux microplate reader (PerkinElmer) equipped with 405/10 excitation and 540/25 emission filters.
8; Dispense; 3 uL; Dispense ONE-Glo ([…]) lucifase detection reagent was added to each well. Plates were covered with metal lids with gas-exchange holes.
9; Incubate; 15 min; Incubate at room temperature.
10; Detector; Luminescence; Measure luminescence with ViewLux microplate reader (PerkinElmer) equipped with clear filters.
NOTES (numbers refer to sequence above)
1; HEK-293-SNCA-luc were cultured and suspended in phenol-red free DMEM (4.5 g/L glucose, 25 mM HEPES, cat #21063 (Thermo)).
3; Compounds were added to the assay plate in an 11-point intra plate dose response, 1:3 titration in DMSO with a final concentration range of […]. Vehicle-only plates, with DMSO being pin-transferred to every well, were inserted at the beginning of screening runs to confirm expected assay performance. Activity was normalized to wells containing medium only (-100% activity, full inhibition) and SNCA-luc cells treated with DMSO vehicle control (0% activity), contained on the same plate as test samples.
10; Signals were analyzed, and dose-response curves were fit using the Hill equation. Compounds in curve classes -1.1, -1.2, -2.1, -2.2 in the SNCA-luc assay were considered active. Compounds were eliminated from further consideration if also active (curve class -1.1, -1.2, -1.3, -1.4, -2.1, -2.2, -2.3, -2.4) in the GF-AFC cytotoxicity assay.
For `Cc1cnn(C)c1C(=O)Nc1cc(Nc2ccc3c(C=Cc4ccccn4)n[nH]c3c2)ccc1F`, the Potency was inconclusive: 21.5 µM [cytotoxic, partial curve]. In the case of `NS(=O)(=O)c1ccc(NC(=O)CN2C(=O)COc3ccc(Cl)cc32)cc1`, the Potency is reported as inconclusive: 15.8 µM [rising, partial curve, poor fit]. For `Cc1noc([C@@H]2CC(F)(F)CN2C(=O)c2ccc3c(c2)OCO3)n1`, the Potency was inconclusive: 31.6 µM [cytotoxic, single point]. For `COc1ccc(C(C)NC(=O)Cn2c(C)cc3nc4n(c(=O)c32)CCCCC4)cc1` (configuration not stated), the Potency was inconclusive: 5.62 µM [cytotoxic, partial curve, poor fit]. For `Cn1cc(CN2CCCC(COc3ccccc3C(=O)N3CCCCC3)C2)c2ccccc21` (configuration not stated), the Potency was inconclusive: 12.6 µM [cytotoxic, partial curve, poor fit]. With `COCCn1cnc2ccc(N3CCCC3)nc2c1=O` the Potency was “inactive”. In the case of `C=Cc1ccc(Cn2c(C(=O)O)c(CNC3CCCC3)c3ccc(C)cc32)cc1`, the Potency is reported as inconclusive: 39.8 µM [cytotoxic, single point]. For `Cc1oc(-c2ccc(Cl)cc2)nc1CS(=O)CC(=O)N1CCN(c2cccc(C(F)(F)F)c2)CC1` (configuration not stated), the Potency was inconclusive: 35.5 µM [cytotoxic, single point]. With `CCCCN(CC)C(=O)CSc1nc2n[nH]c(C)c2c(=N)n1-c1cccc(OC)c1` the Potency was inconclusive: 39.8 µM [cytotoxic, single point]. With `CCc1ccc(C2CC(C(=O)NC(C)c3ccccc3)CN(C(=O)c3ccoc3)C2)cc1` (configuration not stated) the Potency was inconclusive: 0.708 µM [cytotoxic, partial curve, poor fit]. With `COc1cccc(CN2CCCn3nc(C)c(-c4cnccc4C)c32)c1` the Potency was inconclusive: 20 µM [cytotoxic, partial curve, poor fit]. In the case of `COCCCn1c(=N)c(C(=O)NCc2ccco2)cc2c(=O)n3ccccc3nc21`, the Potency is reported as inconclusive: 5.62 µM [rising, partial curve, poor fit]. For `CCNC(=O)Nc1ccc(-c2nc3c(c(N4CCOC[C@H]4C)n2)CCN(C2COC2)C3)cc1`, the Potency was inconclusive: 1.36 µM [cytotoxic, full curve]. With `COC(=O)c1c(NC(C)=O)c2cc(NC(C)CC(C)(C)O)cnc2n1CCC(C)C` (configuration not stated) the Potency was inconclusive: 22.4 µM [rising, partial curve, poor fit]. In the case of `O=C(NCc1cccs1)c1ccc(Cn2c(SCc3ccccc3)nc3cccnc32)cc1`, the Potency is reported as inconclusive: 22.4 µM [cytotoxic, partial curve, poor fit]. With `Cn1nc(C2CCNC2)c2c(C(=O)NCc3ccncc3)cc(C3CC3)nc21` (configuration not stated) the Potency was “inactive”. For `O=C(Nc1ccc2c(c1)OCCO2)N1CCC2(CC1)CC(N1CCOCC1)CCO2` (configuration not stated), the Potency was “inactive”. For `COc1cccc(CN2C(=O)OC3(CCN(C(=O)Cc4ccccn4)CC3)C2(C)c2cccnc2)c1` (configuration not stated), the Potency was “inactive”. For `Cn1ncc2c(C(=O)NCCCc3ccccc3)cc(-c3ccc(Cl)nc3)nc21`, the Potency was “inactive”. In the case of `COc1cccc(C(=O)NC2CCN(c3nccc(Nc4ccc(C)cc4)n3)CC2)c1`, the Potency is reported as inconclusive: 17.8 µM [cytotoxic, partial curve, poor fit]. In the case of `CCn1c(CO)nnc1C1CC(NC(=O)c2ccccc2-n2cccn2)C1` (configuration not stated), the Potency is reported as “inactive”. In the case of `Cc1oc2c(c1C(=O)N1CCSCC1)CN(Cc1cccc(F)c1)CC2`, the Potency is reported as “inactive”. In the case of `COc1ccc(CC(=O)Nc2sc3c(c2C(=O)Nc2cccc(Cl)c2)CCCCC3)cc1`, the Potency is reported as inconclusive: 17.8 µM [cytotoxic, partial curve, poor fit]. In the case of `COCc1nc(N2CCN(c3ccc(OC)cc3)CC2)ncc1C(=O)O`, the Potency is reported as inconclusive: 35.5 µM [rising, single point]. In the case of `COCCN1C(=O)c2ccccc2C(C(=O)Nc2nc3ccccc3[nH]2)C12CCCCC2` (configuration not stated), the Potency is reported as “inactive”. With `O=C([C@@H]1C[C@H](Oc2cccnc2)CN1C(=O)c1cccnc1)N1CCCC1` the Potency was “inactive”. For `O=C(NCc1ccccc1F)C1CCc2nnc(-c3cccc(C(F)(F)F)c3)n21` (configuration not stated), the Potency was “inactive”. For `CO[C@H]1C[C@@H](O)C12CCN(C(=O)CCc1ccc(-c3cccs3)o1)CC2`, the Potency was inconclusive: 14.1 µM [cytotoxic, partial curve]. With `COCC(=O)NC1CCC12CCN(C(=O)c1cc3ccccc3[nH]1)CC2` (configuration not stated) the Potency was inconclusive: 39.8 µM [cytotoxic, single point]. With `Cc1cnc(CCNS(=O)(=O)c2cccc(F)c2)n1Cc1ccccc1` the Potency was “inactive”. In the case of `C[C@H]1CCCN1C(=O)c1nnc(CNCc2ccc3c(c2)OCO3)n1-c1cccnc1`, the Potency is reported as “inactive”. For `Cn1ccnc1CNCC1(COc2ccc(C(F)(F)F)cn2)C[C@@H](O)[C@@H](O)C1` (some centres not stated), the Potency was “inactive”. In the case of `COC1CCCN(c2cc(-c3ccsc3)nc3c(C)noc23)C1` (configuration not stated), the Potency is reported as “inactive”. For `CCn1cc2nc(SCC(=O)Nc3ccc(OC)c(OC)c3)n(Cc3ccc(Cl)cc3)c(=O)c2n1`, the Potency was inconclusive: 1.12 µM [cytotoxic, partial curve, poor fit]. For `CC1OC2O[C@H]3[C@@H](OCC(O)[C@H]3O)OC(=O)C34CCC(C)(C)CC3C3=CCC5C6(C)CC(O)C(OC7OC(CO)C(O)C(O)C7O[C@@H]7OC[C@H](OC(=O)CC(C)(O)CC(=O)OC1C(OC1OCC(O)C(O)C1O)C2O)[C@@H](O)[C@H]7O)C(C)(CO)C6CCC5(C)C3(C)CC4` (some centres not stated), the Potency was inconclusive: 9.22 µM [cytotoxic, partial curve, poor fit]. With `CN(Cc1ccc(-c2ccccc2)cc1)C(=O)C(C)(C)C` the Potency was “inactive”. In the case of `Cc1noc(-c2ccc(OC(F)(F)F)cc2)c1C(=O)NCCCOC(C)C`, the Potency is reported as inconclusive: 2.82 µM [cytotoxic, full curve, poor fit]. With `Cc1ccc(-c2n[nH]c3c2C(c2ccc(C(C)(C)C)cc2)NC3=O)cc1` (configuration not stated) the Potency was inconclusive: 39.8 µM [rising, single point]. In the case of `CN(C)c1ncc2nc(-c3cc(F)cc(F)c3)c(=O)n(-c3ccccc3)c2n1`, the Potency is reported as inconclusive: 10 µM [rising, partial curve, poor fit]. In the case of `O=C1[C@H]2CN(Cc3ccccc3F)C[C@H]2C(=O)N1CCc1ccccc1`, the Potency is reported as inconclusive: 1 µM [rising, full curve, poor fit]. For `CC(=O)NC1CCCc2c1[nH]c1ccc(Cl)cc21` (configuration not stated), the Potency was “inactive”. With `COc1cccc(/C=C/c2nc(C#N)c(NCCc3ccccc3)o2)c1` the Potency was inconclusive: 1.26 µM [rising, full curve, poor fit]. With `CCN(Cc1noc(C)n1)C(=O)c1coc(COc2ccc3c(c2)OCO3)n1` the Potency was “inactive”. In the case of `CCc1ccccc1NC(=O)c1sc2nc(C)cc(COC)c2c1N`, the Potency is reported as inconclusive: 22.4 µM [rising, partial curve, poor fit]. With `O=C(c1cccc(O)c1)N1CCc2c(n(CCOc3ccccc3)n(-c3ccccc3)c2=O)C1` the Potency was “inactive”. For `COc1ccccc1CNC(=O)C1CCCN(c2nnc(C)c3c(C)n(-c4ccccc4)nc23)C1` (configuration not stated), the Potency was inconclusive: 3.55 µM [cytotoxic, full curve, poor fit]. With `CCOc1ccc(NC(=O)CC(C)O)cc1` (configuration not stated) the Potency was inconclusive: 1 µM [rising, full curve, poor fit]. For `C=CCn1c(=O)c2cnc(Nc3ccc(N4CCN(C)CC4)cc3)nc2n1-c1cccc(C(C)(C)O)n1`, the Potency was inconclusive: 0.242 µM [cytotoxic, full curve, poor fit]. With `CCCN1CCN(c2cc3c(cc2F)c(=O)c(S(=O)(=O)c2ccc(CC)cc2)cn3CC)CC1` the Potency was inconclusive: 10 µM [cytotoxic, partial curve, poor fit]. With `N#Cc1ccccc1CN1CCCCC12Cc1ccccc1CNC2=O` (configuration not stated) the Potency was inconclusive: 3.98 µM [cytotoxic, full curve]. In the case of `COc1ccc(OC)c(CN2CCNc3cnc(Nc4cccnc4)cc3C2)c1`, the Potency is reported as “inactive”. In the case of `CCOC(=O)c1ccc(-c2ccc(/C=C(\C#N)c3nc4ccc(C)cc4[nH]3)o2)cc1`, the Potency is reported as inconclusive: 0.562 µM [rising, full curve, poor fit]. In the case of `COc1cccc(-c2ccc(CN3CCCC(NC(=O)c4ccc(F)cc4)C3)cc2)c1` (configuration not stated), the Potency is reported as inconclusive: 39.8 µM [cytotoxic, single point]. For `COc1ccc(NC(=O)CSc2nc3ccccc3n2CC(=O)N2CCCCC2C)cc1` (configuration not stated), the Potency was inconclusive: 14.1 µM [cytotoxic, partial curve, poor fit]. In the case of `O=C(NC[C@H]1O[C@H](Cc2cc(-c3ccc(F)cc3)on2)CC[C@@H]1O)c1ccc(F)cc1`, the Potency is reported as “inactive”. In the case of `COc1ccc2ccccc2c1CN1CCC2(CC1)[C@H](O)C[C@@H]2OCCN`, the Potency is reported as inconclusive: 8.91 µM [cytotoxic, full curve, poor fit]. With `CCCN(CCC)C(=O)C(CCC(=O)OCCCN1CCN(CCOC(=O)Cc2c(C)n(C(=O)c3ccc(Cl)cc3)c3ccc(OC)cc23)CC1)NC(=O)c1ccccc1` (configuration not stated) the Potency was inconclusive: 21.2 µM [cytotoxic, partial curve, poor fit]. With `CCOC(=O)c1cc2c(=O)n3ccccc3nc2n(Cc2ccco2)c1=NC(=O)c1ccc(C)c(C)c1` the Potency was inconclusive: 25.1 µM [rising, partial curve]. In the case of `O=C(c1nn(CC2CC2)c2c1CNCC2)N1CCC(Cc2ccccc2)CC1`, the Potency is reported as “inactive”. For `O=C(NC1CCN(c2cc(-c3ccc(F)cc3)[nH]n2)C1)c1c[nH]c2ccccc12` (configuration not stated), the Potency was inconclusive: 39.8 µM [cytotoxic, single point]. For `C[S+](=O)([O-])N1CCC2(CC1)C(=O)NN=C2c1ccccn1`, the Potency was “inactive”. With `CCCn1c(C)cnc1CC1CCCN(S(=O)(=O)c2cc(OC)ccc2OC)C1` (configuration not stated) the Potency was inconclusive: 14.1 µM [cytotoxic, partial curve].
